# Results published in the supplement of paper PMC8728848.
# Some of the results follow.
# Columns and labels:
# Assay in all cases: glycan array binding signal (z-score within array); higher = stronger binding
# Conditions in all cases: glycan notation: IUPAC condensed, linker removed
# Glc(b1-4)Glc = molecular target: Glc(b1-4)Glc
# How it was run: (§1)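 Glycan array data came from 3228 arrays in the Consortium for Functional Glycomics database, and only arrays with an available protein sequence were kept. Glycan names were put into IUPAC-condensed notation, and columns mapping to the same glycan were averaged. The binding signal is a within-array Z-score, averaged across arrays of one protein sequence run at different concentrations or buffers and across linkers. A negative Z-score can be read as non-binding.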
# Glc(b1-6)Glc = molecular target: Glc(b1-6)Glc
# How it was run: as §1
# GlcA(b1-3)Gal = molecular target: GlcA(b1-3)Gal
# How it was run: as §1
# GlcA(b1-3)GlcNAc = molecular target: GlcA(b1-3)GlcNAc
# How it was run: as §1
# GlcA(b1-6)Gal = molecular target: GlcA(b1-6)Gal
# How it was run: as §1
# [1] = molecular target: GlcA3S(b1-3)Gal(b1-4)GlcNAc(b1-2)Man
# How it was run: as §1
# [2] = molecular target: GlcA3S(b1-3)Gal(b1-4)GlcNAc(b1-3)Gal(b1-4)Glc
# How it was run: as §1
# [3] = molecular target: GlcNAc(a1-3)Gal(b1-4)GlcNAc
# How it was run: as §1
# [4] = molecular target: GlcNAc(a1-4)Gal(b1-3)GlcNAc
# How it was run: as §1
# [5] = molecular target: GlcNAc(a1-4)Gal(b1-4)GalNAc
# How it was run: as §1
# [6] = molecular target: GlcNAc(a1-4)Gal(b1-4)GlcNAc
# How it was run: as §1
# [7] = molecular target: GlcNAc(a1-4)Gal(b1-4)GlcNAc(b1-3)Gal(b1-4)Glc
# How it was run: as §1
# [8] = molecular target: GlcNAc(a1-4)Gal(b1-4)GlcNAc(b1-3)Gal(b1-4)GlcNAc
# How it was run: as §1
# [9] = molecular target: GlcNAc(a1-4)Gal(b1-4)GlcNAc(b1-3)Gal(b1-4)GlcNAc(b1-3)Gal(b1-4)GlcNAc
# How it was run: as §1
# [10] = molecular target: GlcNAc(a1-4)Gal(b1-4)GlcNAc(b1-3)Gal(b1-4)[Fuc(a1-3)]GlcNAc(b1-3)Gal(b1-4)[Fuc(a1-3)]GlcNAc
# How it was run: as §1
# [11] = molecular target: GlcNAc(a1-6)Gal(b1-4)GlcNAc
# How it was run: as §1
# [12] = molecular target: GlcNAc(b1-2)Gal(b1-3)GalNAc
# How it was run: as §1
# [13] = molecular target: GlcNAc(b1-2)Man(a1-3)[GlcNAc(b1-2)Man(a1-6)]Man(b1-4)GlcNAc(b1-4)GlcNAc
# How it was run: as §1
# [14] = molecular target: GlcNAc(b1-2)Man(a1-3)[GlcNAc(b1-2)Man(a1-6)]Man(b1-4)GlcNAc(b1-4)[Fuc(a1-6)]GlcNAc
# How it was run: as §1
# [15] = molecular target: GlcNAc(b1-2)Man(a1-3)[GlcNAc(b1-4)][GlcNAc(b1-2)Man(a1-6)]Man(b1-4)GlcNAc(b1-4)GlcNAc
# How it was run: as §1
# [16] = molecular target: GlcNAc(b1-2)Man(a1-3)[GlcNAc(b1-4)][GlcNAc(b1-2)Man(a1-6)]Man(b1-4)GlcNAc(b1-4)[Fuc(a1-6)]GlcNAc
# How it was run: as §1
# [17] = molecular target: GlcNAc(b1-2)[GlcNAc(b1-4)]Man(a1-3)[GlcNAc(b1-2)Man(a1-6)]Man(b1-4)GlcNAc(b1-4)GlcNAc
# How it was run: as §1
# [18] = molecular target: GlcNAc(b1-2)[GlcNAc(b1-4)]Man(a1-3)[GlcNAc(b1-4)][GlcNAc(b1-2)Man(a1-6)]Man(b1-4)GlcNAc(b1-4)GlcNAc
# How it was run: as §1
# [19] = molecular target: GlcNAc(b1-2)[GlcNAc(b1-4)]Man(a1-3)[GlcNAc(b1-4)][GlcNAc(b1-2)[GlcNAc(b1-6)]Man(a1-6)]Man(b1-4)GlcNAc(b1-4)GlcNAc
# How it was run: as §1
# [20] = molecular target: GlcNAc(b1-2)[GlcNAc(b1-4)]Man(a1-3)[GlcNAc(b1-4)][GlcNAc(b1-2)[GlcNAc(b1-6)]Man(a1-6)]Man(b1-4)GlcNAc(b1-4)[Fuc(a1-6)]GlcNAc
# How it was run: as §1
# [21] = molecular target: GlcNAc(b1-2)[GlcNAc(b1-6)]Man(a1-6)[GlcNAc(b1-2)Man(a1-3)]Man(b1-4)GlcNAc(b1-4)GlcNAc
# How it was run: as §1
# [22] = molecular target: GlcNAc(b1-2)[GlcNAc(b1-6)]Man(a1-6)[GlcNAc(b1-2)Man(a1-3)]Man(b1-4)GlcNAc(b1-4)[Fuc(a1-6)]GlcNAc
# How it was run: as §1
# [23] = molecular target: GlcNAc(b1-2)[GlcNAc(b1-6)]Man(a1-6)[GlcNAc(b1-4)][GlcNAc(b1-2)Man(a1-3)]Man(b1-4)GlcNAc(b1-4)GlcNAc
# How it was run: as §1
# GlcNAc(b1-3)Fuc = molecular target: GlcNAc(b1-3)Fuc
# How it was run: as §1
# GlcNAc(b1-3)Gal = molecular target: GlcNAc(b1-3)Gal
# How it was run: as §1
# [24] = molecular target: GlcNAc(b1-3)Gal(b1-3)GalNAc
# How it was run: as §1
# GlcNAc(b1-3)Gal(b1-4)Glc = molecular target: GlcNAc(b1-3)Gal(b1-4)Glc
# How it was run: as §1
# [25] = molecular target: GlcNAc(b1-3)Gal(b1-4)GlcNAc
# How it was run: as §1
# [26] = molecular target: GlcNAc(b1-3)Gal(b1-4)GlcNAc(b1-2)Man(a1-3)[GlcNAc(b1-3)Gal(b1-4)GlcNAc(b1-2)Man(a1-6)]Man(b1-4)GlcNAc(b1-4)GlcNAc
# How it was run: as §1
# [27] = molecular target: GlcNAc(b1-3)Gal(b1-4)GlcNAc(b1-2)Man(a1-3)[GlcNAc(b1-3)Gal(b1-4)GlcNAc(b1-2)Man(a1-6)]Man(b1-4)GlcNAc(b1-4)[Fuc(a1-6)]GlcNAc
# How it was run: as §1
# [28] = molecular target: GlcNAc(b1-3)Gal(b1-4)GlcNAc(b1-2)[GlcNAc(b1-3)Gal(b1-4)GlcNAc(b1-6)]Man(a1-6)[GlcNAc(b1-3)Gal(b1-4)GlcNAc(b1-2)Man(a1-3)]Man(b1-4)GlcNAc(b1-4)GlcNAc
# How it was run: as §1
# [29] = molecular target: GlcNAc(b1-3)Gal(b1-4)GlcNAc(b1-3)Gal(b1-4)GlcNAc
# How it was run: as §1
# [30] = molecular target: GlcNAc(b1-3)Gal(b1-4)GlcNAc(b1-3)Gal(b1-4)GlcNAc(b1-2)Man(a1-3)[GlcNAc(b1-3)Gal(b1-4)GlcNAc(b1-3)Gal(b1-4)GlcNAc(b1-2)Man(a1-6)]Man(b1-4)GlcNAc(b1-4)GlcNAc
# How it was run: as §1
# [31] = molecular target: GlcNAc(b1-3)Gal(b1-4)GlcNAc(b1-3)Gal(b1-4)GlcNAc(b1-2)Man(a1-3)[GlcNAc(b1-3)Gal(b1-4)GlcNAc(b1-3)Gal(b1-4)GlcNAc(b1-2)Man(a1-6)]Man(b1-4)GlcNAc(b1-4)[Fuc(a1-6)]GlcNAc
# How it was run: as §1
# [32] = molecular target: GlcNAc(b1-3)Gal(b1-4)GlcNAc(b1-3)Gal(b1-4)GlcNAc(b1-2)[GlcNAc(b1-3)Gal(b1-4)GlcNAc(b1-3)Gal(b1-4)GlcNAc(b1-6)]Man(a1-6)[GlcNAc(b1-3)Gal(b1-4)GlcNAc(b1-3)Gal(b1-4)GlcNAc(b1-2)Man(a1-3)]Man(b1-4)GlcNAc(b1-4)[Fuc(a1-6)]GlcNAc
# How it was run: as §1
# [33] = molecular target: GlcNAc(b1-3)Gal(b1-4)GlcNAc(b1-3)Gal(b1-4)GlcNAc(b1-3)Gal(b1-4)GlcNAc(b1-2)Man(a1-3)[GlcNAc(b1-3)Gal(b1-4)GlcNAc(b1-3)Gal(b1-4)GlcNAc(b1-3)Gal(b1-4)GlcNAc(b1-2)Man(a1-6)]Man(b1-4)GlcNAc(b1-4)GlcNAc
# How it was run: as §1
# [34] = molecular target: GlcNAc(b1-3)Gal(b1-4)GlcNAc(b1-3)Gal(b1-4)GlcNAc(b1-3)Gal(b1-4)GlcNAc(b1-2)Man(a1-3)[GlcNAc(b1-3)Gal(b1-4)GlcNAc(b1-3)Gal(b1-4)GlcNAc(b1-3)Gal(b1-4)GlcNAc(b1-2)Man(a1-6)]Man(b1-4)GlcNAc(b1-4)[Fuc(a1-6)]GlcNAc
# How it was run: as §1
# [35] = molecular target: GlcNAc(b1-3)Gal(b1-4)GlcNAc(b1-3)Gal(b1-4)GlcNAc(b1-3)Gal(b1-4)GlcNAc(b1-2)[GlcNAc(b1-3)Gal(b1-4)GlcNAc(b1-3)Gal(b1-4)GlcNAc(b1-3)Gal(b1-4)GlcNAc(b1-6)]Man(a1-6)[GlcNAc(b1-3)Gal(b1-4)GlcNAc(b1-3)Gal(b1-4)GlcNAc(b1-3)Gal(b1-4)GlcNAc(b1-2)Man(a1-3)]Man(b1-4)GlcNAc(b1-4)[Fuc(a1-6)]GlcNAc
# How it was run: as §1
# [36] = molecular target: GlcNAc(b1-3)Gal(b1-4)GlcNAc(b1-3)Gal(b1-4)GlcNAc(b1-3)Gal(b1-4)GlcNAc(b1-3)Gal(b1-4)GlcNAc(b1-2)Man(a1-3)[GlcNAc(b1-3)Gal(b1-4)GlcNAc(b1-3)Gal(b1-4)GlcNAc(b1-3)Gal(b1-4)GlcNAc(b1-3)Gal(b1-4)GlcNAc(b1-2)Man(a1-6)]Man(b1-4)GlcNAc(b1-4)GlcNAc
# How it was run: as §1
# [37] = molecular target: GlcNAc(b1-3)Gal(b1-4)GlcNAc(b1-3)Gal(b1-4)GlcNAc(b1-3)Gal(b1-4)GlcNAc(b1-3)Gal(b1-4)GlcNAc(b1-2)Man(a1-3)[GlcNAc(b1-3)Gal(b1-4)GlcNAc(b1-3)Gal(b1-4)GlcNAc(b1-3)Gal(b1-4)GlcNAc(b1-3)Gal(b1-4)GlcNAc(b1-2)Man(a1-6)]Man(b1-4)GlcNAc(b1-4)[Fuc(a1-6)]GlcNAc
# How it was run: as §1
binder,measurement,setting,value
"Dectin2 (Homo sapiens), Q6EIG7 (protein) MMQEQQPQSTEKRGWLSLRLWSVAGISIALLSACFIVSCVVTYHFTYGETGKRLSELHSYHSSLTCFSEGTKVPAWGCCPASWKSFGSSCYFISSEEKVWSKSEQNCVEMGAHLVVFNTEAEQNFIVQQLNESFSYFLGLSDPQGNNNWQWIDKTPYEKNVRFWHLGEPNHSAEQCASIVFWKPTGWGWNDVICETRRNSICEMNKIYL",glycan array binding signal (z-score),Glc(b1-4)Glc,-0.067
same,glycan array binding signal (z-score),Glc(b1-6)Glc,-0.072
same,glycan array binding signal (z-score),GlcA(b1-3)Gal,-0.166
same,glycan array binding signal (z-score),GlcA(b1-3)GlcNAc,-0.186
same,glycan array binding signal (z-score),GlcA(b1-6)Gal,-0.142
same,glycan array binding signal (z-score),[1],-0.186
same,glycan array binding signal (z-score),[2],-0.198
same,glycan array binding signal (z-score),[3],-0.186
same,glycan array binding signal (z-score),[4],-0.19
same,glycan array binding signal (z-score),[5],-0.154
same,glycan array binding signal (z-score),[6],-0.173
same,glycan array binding signal (z-score),[7],-0.198
same,glycan array binding signal (z-score),[8],-0.165
same,glycan array binding signal (z-score),[9],-0.198
same,glycan array binding signal (z-score),[10],-0.102
same,glycan array binding signal (z-score),[11],-0.204
same,glycan array binding signal (z-score),[12],-0.189
same,glycan array binding signal (z-score),[13],-0.118
same,glycan array binding signal (z-score),[14],-0.008
same,glycan array binding signal (z-score),[15],-0.143
same,glycan array binding signal (z-score),[16],-0.195
same,glycan array binding signal (z-score),[17],-0.187
same,glycan array binding signal (z-score),[18],-0.198
same,glycan array binding signal (z-score),[19],-0.2
same,glycan array binding signal (z-score),[20],-0.184
same,glycan array binding signal (z-score),[21],-0.15
same,glycan array binding signal (z-score),[22],-0.01
same,glycan array binding signal (z-score),[23],-0.2
same,glycan array binding signal (z-score),GlcNAc(b1-3)Fuc,-0.122
same,glycan array binding signal (z-score),GlcNAc(b1-3)Gal,-0.122
same,glycan array binding signal (z-score),[24],-0.16
same,glycan array binding signal (z-score),GlcNAc(b1-3)Gal(b1-4)Glc,-0.166
same,glycan array binding signal (z-score),[25],-0.189
same,glycan array binding signal (z-score),[26],-0.138
same,glycan array binding signal (z-score),[27],-0.001
same,glycan array binding signal (z-score),[28],0.193
same,glycan array binding signal (z-score),[29],-0.204
same,glycan array binding signal (z-score),[30],0.249
same,glycan array binding signal (z-score),[31],0.049
same,glycan array binding signal (z-score),[32],0.131
same,glycan array binding signal (z-score),[33],-0.049
same,glycan array binding signal (z-score),[34],0.028
same,glycan array binding signal (z-score),[35],0.209
same,glycan array binding signal (z-score),[36],-0.038
same,glycan array binding signal (z-score),[37],-0.079
